Reference: publication PMC4336329 (PLoS ONE, 2015)
About 2,200 (0.71%) of roughly 310,000 compounds showed an effect of 50% or more. The effect is printed as a negative number. The list shows a part of the results.

Molecular target: human ether-à-go-go-related gene (hERG) potassium channel (human, UniProt Q12809)
Experiment: primary screen, population patch clamp on CHO cells stably expressing hERG

Chain of human ether-à-go-go-related gene (hERG) potassium channel (Q12809 whole entry, looked up): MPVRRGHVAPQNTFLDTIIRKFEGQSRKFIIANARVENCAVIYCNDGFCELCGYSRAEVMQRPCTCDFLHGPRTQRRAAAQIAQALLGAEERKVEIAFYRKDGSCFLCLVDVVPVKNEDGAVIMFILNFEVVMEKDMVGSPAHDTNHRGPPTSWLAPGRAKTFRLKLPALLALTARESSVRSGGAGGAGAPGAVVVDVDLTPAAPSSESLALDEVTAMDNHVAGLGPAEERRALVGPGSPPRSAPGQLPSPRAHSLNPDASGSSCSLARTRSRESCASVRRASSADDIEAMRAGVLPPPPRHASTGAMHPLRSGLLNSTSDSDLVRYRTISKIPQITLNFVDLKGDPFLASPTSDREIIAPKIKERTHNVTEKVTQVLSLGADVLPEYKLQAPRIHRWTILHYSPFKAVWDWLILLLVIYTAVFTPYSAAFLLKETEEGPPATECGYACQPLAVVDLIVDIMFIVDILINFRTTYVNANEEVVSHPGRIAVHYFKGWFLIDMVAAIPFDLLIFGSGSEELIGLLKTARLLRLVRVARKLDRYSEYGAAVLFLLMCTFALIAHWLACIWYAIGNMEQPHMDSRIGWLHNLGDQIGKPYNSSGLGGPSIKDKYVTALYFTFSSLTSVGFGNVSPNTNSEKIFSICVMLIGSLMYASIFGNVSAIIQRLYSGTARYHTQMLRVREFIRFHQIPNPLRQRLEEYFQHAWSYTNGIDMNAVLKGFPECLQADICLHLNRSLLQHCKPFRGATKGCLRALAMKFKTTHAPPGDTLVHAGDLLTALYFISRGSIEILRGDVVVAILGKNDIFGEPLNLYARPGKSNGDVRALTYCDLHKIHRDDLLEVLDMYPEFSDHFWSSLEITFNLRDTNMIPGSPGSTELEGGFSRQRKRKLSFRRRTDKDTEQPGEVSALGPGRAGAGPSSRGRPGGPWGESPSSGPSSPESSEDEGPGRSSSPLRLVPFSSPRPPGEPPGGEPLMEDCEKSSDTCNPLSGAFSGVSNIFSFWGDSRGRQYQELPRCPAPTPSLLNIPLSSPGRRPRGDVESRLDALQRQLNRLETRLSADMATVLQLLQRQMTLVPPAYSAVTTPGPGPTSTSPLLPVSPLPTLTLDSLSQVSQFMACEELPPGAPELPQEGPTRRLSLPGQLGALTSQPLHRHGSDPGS

Structure (SMILES)	hERG current change (%, negative = inhibition) at 1uM [%]
CCOC(=O)CSC1=C(C#N)C(c2ccccc2OC)CC(=O)N1 (centres unmarked)	9.93
O=c1[nH]nc(-c2ccc(OCc3ccc(Cl)cc3Cl)cc2)o1	8.74
CCOC(=O)c1cccc(NC(=O)CC2Oc3ccccc3NC2=O)c1 (centres unmarked)	8.69
COc1ccc(-c2nnsc2N2C(=O)c3ccccc3C2=O)cc1	13.2
c1ccc(C2CC3CC(c4ccco4)N2O3)cc1 (centres unmarked)	9.62
COc1ccc(-n2c3c(cc(C(=O)NCC(=O)c4ccccc4)c2=O)C(=O)CC(C)(C)C3)cc1	4.25
CC(C)c1ccc(Nc2ncccc2C(=O)O)cc1	11.2
CC(=O)NCCCc1nc2ccccc2n1Cc1ccccc1F	5.18
Cc1ccc2c(c1)c1c(n2CC(O)Cn2c(C)nc3ccccc32)/C(=N\O)CCC1 (centres unmarked)	11.3
Cn1c(=O)c2[nH]c(N=Nc3ccc(N)cc3N)nc2n(C)c1=O	21
COc1ccccc1NC(=O)C(C)OC(=O)CCNS(=O)(=O)c1cccc(C(F)(F)F)c1 (centres unmarked)	-1.23
Cc1ccc(-c2cc(-c3ccccc3)cc(-c3ccccc3)[n+]2-c2ccc(C(=O)O)cc2)cc1.[O-][Cl+3]([O-])([O-])[O-]	7.88
COc1ccc(CN(C(=O)c2cccs2)c2ccccc2C(=O)O)cc1	9.94
CCCC(=O)Nc1ccc(-c2csc(NNC(C)=O)n2)cc1	8.09
CCOc1ccccc1NC(=O)C1CCN(S(=O)(=O)c2ccc(OC)c(OC)c2)CC1	10.3
CN(C)c1ccc(/C=C/c2cc[n+]([O-])cc2)cc1	8.96
COc1cccc(C2C(C#N)=C(N)Oc3cc(C)n(Cc4ccco4)c(=O)c32)c1 (centres unmarked)	-0.236
Cc1cc(C)nc(N2CCC(C(=O)NCc3ccccc3F)CC2)n1	1.75
COc1ccc(OCc2nnc(SCC(=O)N3c4ccccc4Sc4ccc(Cl)cc43)o2)cc1	11.2
CCOc1ccc(Nc2nc(Cc3nnc(SCC(=O)NC4CCCCC4)n3C)cs2)cc1	-7.35
O=C(CCc1ccccc1)Nc1nnc(-c2ccc3c(c2)OCCO3)o1	10.7
CCc1ccc(S(=O)(=O)NCCc2csc(-c3ccccc3)n2)s1	13.2

Structure (SMILES)	hERG current change (%, negative = inhibition) at 1uM [%]
Cc1cc(=O)[nH]c(SCC(=O)N2CCC(C(N)=O)CC2)n1	12
COC(=O)C1=C(C)Nc2ncnn2C1c1cccnc1 (centres unmarked)	-2.63
CCOC(=O)c1cnn(-c2c(Cc3ccccc3)c(C)nc3c(-c4ccccc4)c(C)nn23)c1N	-6.02
N#C/C(=C\c1ccc([N+](=O)[O-])cc1)C(=O)NCCCn1ccnc1	-29.3
CC(=O)N1CCc2cc(S(=O)(=O)CCC(=O)NCCc3ccccc3)ccc21	15.3
COc1ccc(NC(=O)CSc2nc(O)cc(=O)n2C)cc1	14.3
O=S(=O)(NCCSc1ccccn1)c1ccc(Br)cc1	2.05
CCc1cc(Br)ccc1N1C(=O)C2CC=CCC2C1=O (centres unmarked)	15.5
O=C(CCCCCN1C(=O)c2ccccc2C1=O)Oc1ccc2c3c(c(=O)oc2c1)CCC3	13
C=CCOC(=O)C1=C(C)NC(SCC(=O)N(CC)CC)=C(C#N)C1c1ccco1 (centres unmarked)	-12.5
O=C(O)C(c1ccccc1)N1C(=O)c2ccccc2C1=O (centres unmarked)	11
O=C(c1ccc(S(=O)(=O)Nc2ccccc2F)cc1)N1CCCCCC1	8.85
Cc1[nH]n(C(C)(C)C)c(=O)c1Sc1ccc(Cl)cc1	13.5
COC(=O)c1cc(S(=O)(=O)Nc2cccc(OC)c2)cn1C	11.1
Cc1c(Br)c([N+](=O)[O-])nn1CC(=O)c1ccccc1	12.7
O=C(CN1CCCN(Cc2ccc(F)cc2Cl)C1=O)NCc1ccccc1	-14.7
COc1ccccc1CCNC(=O)C(=O)NCC1OCCN1S(=O)(=O)c1ccc2c(c1)OCCO2 (centres unmarked)	13.4
CC(C)(C)c1ccc(CNc2ccc([N+](=O)[O-])cn2)cc1	2.44
O=C(NNC(=O)c1ccc(O)cc1O)c1ccc(-c2ccccc2)cc1	11.8
COc1ccc2nc(NC(=O)CCNC(=O)c3ccccc3Cl)sc2c1	2.68
O=C(c1cccnc1)C1CCCN(Cc2nc(Cc3ccccc3)no2)C1 (centres unmarked)	11
CCC(=O)Oc1ccc2c(C)c(Cl)c(=O)oc2c1	-2.38

Structure (SMILES)	hERG current change (%, negative = inhibition) at 1uM [%]
Cc1ccc(N=CC2=C(O)CC(C)(C)CC2=O)nc1	15.1
COC(=O)[C@@]12CCCCN1[C@H](c1ccc(-c3ccc(C(C)=O)cc3)cc1)[C@H]1C(=O)N(C)C(=O)[C@H]12.O=C(O)C(F)(F)F	11.4
COc1ccc(OC)c(NC(=O)COC(=O)CN2C(=O)NC3(CCCC3)C2=O)c1	9.7
O=C(c1oc2ccccc2c1N1CCCCC1)N1CCCCC1	-4.4
CCn1c(/C=C/N(C(C)=O)c2ccccc2)[n+](CCCS(=O)(=O)[O-])c2cc(Cl)c(Cl)cc21	10.6
COc1ccc(C(C#N)N2N=C(C)CC2(C)C)cc1 (centres unmarked)	5.93
O=C(NN=C1CCCCCC1)c1ccc(Cl)s1	16.8
O=C(CCc1c[nH]c2ccccc12)N1CCCC1	23.9
CC(NC(=O)c1cccc(S(=O)(=O)N(C)C)c1)c1nc2ccccc2[nH]1 (centres unmarked)	9.08
O=C1CSC(c2ccccn2)N1c1ccc(Cl)c(Cl)c1 (centres unmarked)	6.82
CCN1CCc2nc3sc(C(=O)N4CCc5ccccc5C4)c(N)c3cc2C1	15.9
CCCCN(C)C1CCN(C(=S)Nc2cccc(SC)c2)CC1	-14.7
O=C(Cc1ccccc1)NCC(=O)N1CCCCCC1	5.64
O=C(Nc1nn[nH]n1)c1cccc(Oc2ccccc2)c1	22.7
O=C(CSc1nnc(CN2CCOCC2)n1-c1ccc(Cl)cc1)Nc1ccc2c(c1)OCO2	-5.5
Cc1ccc(C)c(CN2CCC(CNC(=O)Nc3cccc(Cl)c3C)CC2)c1	0.806
COc1cc(/C=N/NC(=O)c2cccnc2)ccc1OCC(=O)Nc1c(C)cc(C)cc1C	21.1
CN1CCN(C(=O)Nc2cccc(-c3ccccc3)c2)CC1	7.08
O=c1c2c(nc3nc(SCc4ccccc4)[nH]n13)CCC2	2.62
COc1ccc(/C=N/NC(=O)c2nn(-c3ccc(C)c(C)c3)c(=O)c3ccccc23)cc1	2.99
COC(=O)c1cc(-c2ccc(Br)cc2)c2c(=O)[nH]c(=O)n(C)c2n1	14.3
COc1ccc2[nH]c3c(c2c1)CCN1C(=O)N([C@@H](C)C(=O)NCc2ccco2)C(=O)[C@]31C	-12.5

Structure (SMILES)	hERG current change (%, negative = inhibition) at 1uM [%]
Cc1ccccc1C(=O)N1N=C(c2ccc(NS(C)(=O)=O)cc2)CC1c1cccs1 (centres unmarked)	2.15
CCCCN(C(=O)C(C)N1C(=O)c2ccccc2C1=O)c1c(N)n(CCCC)c(=O)[nH]c1=O (centres unmarked)	13.1
COc1ccc(NC(=O)CSc2nc(-c3ccc(C)cc3)cc(C(F)(F)F)c2C#N)cc1	31.8
COC(=O)c1cccc(C(=O)N2CCCC(Nc3ccc(C)c(C)c3)C2)c1 (centres unmarked)	8.18
O=C(CSc1nnc2ccccn12)Nc1nsc(-c2ccccc2)n1	8.86
CCC(C)c1ccc(N2C(=O)NC(=O)/C(=C/c3cccn3CCOc3ccc(C)cc3)C2=O)cc1 (centres unmarked)	16.9
CCO.Cc1[nH]nc2c1C(c1cccs1)C1=C(CCCC1=O)N2 (centres unmarked)	12.9
COC(=O)c1ccc(NC(=O)C(C)Oc2ccccc2)cc1 (centres unmarked)	-0.376
COc1ccc(OC(=O)c2cc3cc(Cl)ccc3oc2=O)cc1	9.73
CCOc1cc(/C=C2/NC(=O)N(Cc3ccccc3F)C2=O)ccc1O	11
Cc1c(O)c(=O)ccn1C	11.9
COc1ccc(C2=CC(=O)C[C@H](c3ccc(OC)c(OC)c3)C2)cc1	5.39
O=C(CN1CCN(S(=O)(=O)c2cccc(Br)c2)CC1)NCCc1cccs1	7.73
O=C(COc1ccc(F)cc1)Nc1nnc(-c2ccncc2)s1	-1.35
Cc1ccc(-c2oc3ccccc3c(=O)c2O)cc1	9.86
CCC(C)NC(=O)CSc1nnc(-c2cc(OC)c(OC)c(OC)c2)c(-c2cc(OC)c(OC)c(OC)c2)n1 (centres unmarked)	10.8
COc1cccc2cc(C(C)N(CCCN3CCOCC3)C(=S)Nc3ccc(C)cc3)oc12 (centres unmarked)	9.54
Cc1ccc(NC(=O)CN(C)C(=O)c2ccccc2OCc2c(C)noc2C)cc1	2.17
COc1ccccc1N1CCN(C(c2cc3ccc(C)cc3[nH]c2=O)c2nnnn2C2CCCC2)CC1 (centres unmarked)	-8.67
CC(=O)Nc1ccc(NC(=O)C(C)OC(=O)C2CCCCC2)cc1 (centres unmarked)	-2.39
